# Experimental data from the supplement of paper PMC8183993.
# Counter-ions that a name gives are not always drawn. ± gives the standard deviation of the averaged measurements. Whole data set: some 3,100 compounds, median “mean cytoplasmic OPP incorporation (global translation) relative to DMSO” near 100, cut for the lowest 2% near 56. The list shows a part of the results.
# Test system: U2OS
# Experiment: mean cytoplasmic OPP incorporation (global translation) relative to DMSO (% of DMSO); higher = more protein synthesis
# Conditions: 10 µM; 24 h
# Description: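 Primary image-based screen in U2OS cells: compounds at 10 uM for 24 h, then a 1 h o-propargyl-puromycin (OPP) pulse, click labelling, and high-throughput microscopy. Mean cytoplasmic OPP intensity and nuclei count were normalised to DMSO wells within each plate (DMSO = 100) and averaged over triplicate plates.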
row,Compound,mean cytoplasmic OPP incorporation
1,CN1C2CCC1CC(OC(c1ccccc1)c1ccc(Cl)cc1)C2 (configuration not stated),101
2,"CN1CCc2cc3c(cc2C1C1OC(=O)c2c1ccc1c2OCO1)OCO3 (single isomer, unassigned; (+)) [(+)-Bicuculline]",97.8 ± 4.2
3,CC(O)(CS(=O)(=O)c1ccc(F)cc1)C(=O)Nc1ccc(C#N)c(C(F)(F)F)c1 (configuration not stated) [Bicalutamide],101
4,CCOC(=O)c1cncn1[C@H](C)c1ccccc1 [Etomidate],110 ± 2.8
5,"CC12NC(Cc3ccccc31)c1ccccc12 (single isomer, unassigned; (+)) [(+)-MK 801 maleate]",98.3
6,CC(C)c1cc2c(c(O)c1O)[C@@]1(C(=O)O)CCCC(C)(C)[C@@H]1CC2 [Carnosic acid],96.2
7,CC(C)c1cccc(C(C)C)c1O [Propofol],98
8,C[C@]12CC[C@H](O)C[C@H]1CC[C@@H]1[C@@H]2CC[C@]2(C)[C@@H](C3=CC(=O)OC3)CC[C@]12O [Digitoxigenin],26.3
9,CCCN1CCC[C@@H]2Cc3n[nH]cc3C[C@H]21 [(-)-Quinpirole hydrochloride],98.4
10,CCC(Oc1ccc(Cl)cc1)C(=O)OC1C[C@H]2CC[C@@H](C1)N2C (some centres not stated) [SM-21 maleate],106
11,O=C(NCNC(=O)NC1C(=O)NC(=O)N1CO)NC1C(=O)NC(=O)N1CO (configuration not stated) [Imidurea],105
12,CC(=O)O[C@H]1CC[C@@]2(C)C(=CC[C@@H]3[C@@H]2CC[C@]2(C)C(=O)CC[C@@H]32)C1 [Dehydroisoandosterone 3-acetate],83.5
13,O=[N+]([O-])c1ncc[nH]1 [Azomycin (2-Nitroimidazole)],97.8
14,CN1C[C@H](CNC(=O)OCc2ccccc2)C[C@@H]2c3cccc4c3c(cn4C)C[C@H]21 [Metergoline],114 ± 4.3
15,Oc1ccc2c3c1O[C@H]1[C@@H](O)CC[C@@]4(O)[C@@H](C2)N(CC2CCC2)CC[C@]314 [Nalbuphine hydrochloride],99.5
16,O=C1CN=C(c2cccc(Br)c2)c2oc3ccccc3c2N1,93.9
17,COc1cc2c(c(OC)c1OC)-c1ccc(OC)c(=O)cc1[C@@H](NC(C)=O)CC2 [Colchicine],89.8 ± 2.9
18,CC[C@@H](CO)NC(=O)[C@@H]1C=C2c3cccc4c3c(cn4C)C[C@H]2N(C)C1 [Methysergide maleate],101
19,N#C[C@H](O[C@@H]1O[C@H](CO[C@@H]2O[C@H](CO)[C@@H](O)[C@H](O)[C@H]2O)[C@@H](O)[C@H](O)[C@H]1O)c1ccccc1 [Amygdalin],108
20,"CC(=O)N1CC[N+](C)(C)CC1 [4-Acetyl-1,1-dimethylpiperazinium iodide]",100
21,C[C@]12CC[C@H](O)CC1=CC[C@@H]1[C@@H]2CC[C@]2(C)C(=O)CC[C@@H]12 [Dehydroepiandrosterone (DHEA)],99.4
22,c1ccc2c(c1)OCC(C1=NCCN1)O2 (configuration not stated) [Idazoxan hydrochloride],96.7 ± 2.7
23,CCCCCC[C@H]1C(=O)O[C@H](C)[C@H](NC(=O)c2cccc(NC=O)c2O)C(=O)O[C@@H](C)[C@@H]1OC(=O)CC(C)C [Antimycin A],73.8
24,"c1ccc(C2CNCc3ccccc32)cc1 (configuration not stated) [4-Phenyl-1,2,3,4-tetrahydroisoquinoline hydrochloride]",98.4
25,NC(C(=O)O)c1nn[nH]n1 (racemic) [(RS)-(Tetrazol-5-yl)glycine],102
26,COc1ccc(CC2NCCc3cc(OC)c(OC)cc32)cc1OC (configuration not stated) [Tetrahydropapaverine HCl],107

row,Compound,mean cytoplasmic OPP incorporation
1,CC[N+]1(C)CCCC(OC(=O)C(O)(c2ccccc2)c2ccccc2)C1 (configuration not stated) [Pipenzolate bromide],100
2,C/C=C(/C)C(=O)O[C@H]1C(C)=C2[C@H]([C@@H]1OC(=O)CCCCCCC)[C@@](C)(OC(C)=O)C[C@H](OC(=O)CCC)[C@@]1(O)[C@H]2OC(=O)[C@@]1(C)O [Thapsigargin],95 ± 39
3,COC1(C[S@+]([O-])c2ccccc2)CCN(CCc2c[nH]c3ccc(F)cc23)CC1,101
4,Cc1nnc2n1-c1sc(CCC(=O)N3CCOCC3)cc1C(c1ccccc1Cl)=NC2,100
5,c1ccc([C@@H]2C[C@H]2NC2CCNCC2)cc1,99.8
6,CCC[C@@H]1CC2=CC(=O)CC[C@]2(C)[C@H]2CC[C@@]3(C)[C@@H](CC[C@@]3(O)CCC(=O)O)[C@H]12,96.1
7,CCOC(=O)c1ncn2c1CN(C)C(=O)c1cc(N=[N+]=[N-])ccc1-2,91.9
8,CCCN1CCO[C@@H]2c3cc(O)ccc3OC[C@H]21,97.1
9,C[C@]12COC(=O)C[C@@H]1CC[C@@H]1[C@@H]2CC[C@@]2(C)[C@H]1CC[C@]2(C)O [Oxandrolone],101
10,O=P1(N(CCCl)CCCl)NCCCO1 (configuration not stated) [Cyclophosphamide],99
11,CCCN[C@@H]1CCc2c(OC)cccc2[C@@H]1C [(+)-AJ 76 hydrochloride],107
12,CN1C(=O)CCS(=O)(=O)C1c1ccc(Cl)cc1 (configuration not stated) [Chlormezanone],103 ± 3.1
13,Cn1c2c(c3ccccc31)CCNCC2,97.4
14,CC(=O)[C@H]1CC[C@H]2[C@@H]3CC[C@H]4C[C@H](O)CC[C@]4(C)[C@H]3C(=O)C[C@]12C [Alfaxalone],102
15,C=C1C[C@@H]2[C@H](CC[C@]3(C)C(=O)CC[C@@H]23)[C@@]2(C)C=CC(=O)C=C12 [Exemestane],87.62 ± 0.59
16,CC1=NN=C(c2ccc(N)cc2)c2cc3c(cc2C1)OCO3,110
17,C[C@H]1CNCCc2ccc(Cl)cc21 [Lorcaserin HCl],99.4
18,C/C(O)=C(\C#N)C(=O)Nc1cc(Br)ccc1Br,90.7
19,Cc1ccccc1-n1c(Cn2ncc3c(N)ncnc32)nc2cccc(C)c2c1=O,104
20,CCC1(C)CC(=O)NC(=O)C1 [Bemegride],102
21,C[C@@]12C(=O)OC(=O)[C@]1(C)[C@H]1CC[C@@H]2O1 [Cantharidin],93.1 ± 5.2
22,CCCC(C)(COC(N)=O)COC(=O)NC(C)C (configuration not stated) [Carisoprodol],97.1
23,Cc1ccc2c(c1)C1(CCN(CCc3nc(-c4ccccc4)oc3C)CC1)OC(=O)N2,93.4
24,C[C@]12CCC(=O)C=C1CC[C@@H]1[C@@H]2CC[C@]2(C)C(=O)CC[C@@H]12 [Androstenedione],97
25,OC(c1ccccc1)(c1ccccc1)C1CCNCC1 [Azacyclonol],96
26,N[C@@H]1C[C@H]1c1ccccc1.N[C@H]1C[C@@H]1c1ccccc1 [Tranylcypromine hemisulfate],120

row,Compound,mean cytoplasmic OPP incorporation
1,N=C(NCc1ccc(Cl)cc1)SCCCc1c[nH]cn1 [Clobenpropit dihydrobromide],95.4
2,COc1cc(OC)c(OC)cc1C=O [Asaraldehyde (Asaronaldehyde)],99.3
3,C[N+]1(C)CCCC(OC(=O)C(O)(c2ccccc2)c2ccccc2)C1 (configuration not stated) [Mepenzolate bromide],95.8
4,COc1cc(N)c(Cl)cc1C(=O)NC1CN2CCC1CC2 (configuration not stated) [Zacopride hydrochloride],104
5,c1ccc2sc(C3(N4CCCCC4)CCCCC3)cc2c1 [BTCP maleate],109
6,C[C@@H]1CN([C@H]2CC[C@](C#N)(c3ccc(F)cc3)CC2)CC[C@]1(C(=O)O)c1ccccc1 [Levocabastine hydrochloride],98.1
7,C(=C\c1ccccc1)/CN1CCN(CCOC(c2ccccc2)c2ccccc2)CC1,98.5
8,C=CCC1(CC(C)C)C(=O)NC(=O)NC1=O [Butalbital],99.9
9,O=C1C2CCN(CC2)C1(CO)CO,97.1
10,O=C(CCCN1CCC(n2c(=O)[nH]c3ccccc32)CC1)c1ccc(F)cc1 [Benperidol],110
11,"C=CCN1CC[C@]2(C)c3cc(O)ccc3C[C@H]1C2C (single isomer, unassigned; (+))",105
12,Cc1sc2c(c1C)C(c1ccc(Cl)cc1)=N[C@@H](CC(=O)OC(C)(C)C)c1nnc(C)n1-2,103
13,COc1ccc(OC)c(C(O)C(C)N)c1 (configuration not stated) [Methoxamine hydrochloride],97.2
14,Ic1cncc(OC[C@@H]2CCN2)c1,97.5
15,CCOc1cncc(/C=C/CCNC)c1 [TC 2559 difumarate],97.5
16,CCC(=O)O[C@H]1CC[C@H]2[C@@H]3CCC4=CC(=O)CC[C@]4(C)[C@H]3CC[C@]12C [Testosterone propionate],98.3
17,CC1OC(OC2/C=C/C=C/C=C/C=C/CC/C=C/C=C/[C@H](C)[C@@H](O)[C@@H](C)[C@H](C)OC(=O)CC(O)CC(O)CC(O)CCC(O)C(O)C[C@]3(O)CC(O)C(C(=O)O)C(C2)O3)C(O)C(N)C1O (some centres not stated) [Nystatine],106
18,CN1CCN(c2ccc3ccccc3n2)CC1 [N-Methylquipazine dimaleate],97.4
19,NCCCNCCSP(=O)(O)O [Amifostine],90.7
20,"Clc1ccc(N2CCN(Cc3c[nH]c4ncccc34)CC2)cc1 [L-745,870 trihydrochloride]",104
21,O=C(CCCN1CCC2(CC1)C(=O)N(Cc1cccc(F)c1)CN2c1ccccc1)c1ccc(F)cc1 [3'-Fluorobenzylspiperone maleate],122
22,CCN(CC)C(=O)c1ccc(C2=CC3(CCNCC3)Oc3cccc(O)c32)cc1,110
23,NCCc1c[nH]c2ccc(C(N)=O)cc12 [5-Carboxamidotryptamine maleate],99.2
24,O=c1[nH]c2ccc(Cl)cc2c(N[C@@H]2CN3CCC2CC3)c1-c1nc2ccccc2[nH]1,56.6 ± 4
25,CC1(C)[C@@H](O)C[C@H]2[C@](C)(O)[C@@H]3CC[C@@H]4[C@@H](O)[C@@]3(C[C@@H](O)[C@@]21O)C[C@@]4(C)O [Grayanotoxin III],102
